# Test results as given in PubChem BioAssay AID624296 (National Center for Advancing Translational Sciences (NCATS), 2012).
# Out of some 350,000 compounds screened, about 9,900 (2.8%) were called active. The inconclusive results got no clear call from the source; some entries with a clear call stand among them for comparison. The call rests on the fitted dose curve; in most records, active means well fitted activation curve with a large enough effect; inconclusive means small, poorly fitted or top-dose-only effect; inactive means no such curve, though single readings can be large or run the other way. No potency is given beside an inconclusive call; the fits are too rough.
# Assay: A quantitative high throughput screen for small molecules that induce DNA re-replication in MCF 10a normal breast cells. Further: nearly all actives have a fitted effect of over 50% in size.
# Conditions: MCF 10A DNA re-replication, Hoechst nuclear intensity, 48 h; series mostly up to 46.1 µM
# Potency means the concentration at half of the fitted maximal effect; tags describe the fitted curve by direction and shape.
row,Compound,Potency
1,COc1ccc(N(CC(=O)Nc2cccc(N(C)S(C)(=O)=O)c2)S(C)(=O)=O)cc1OC,"inconclusive [activator, single point]"
2,C=CCOn1c(=O)c(-c2ccc(Br)cc2)[n+]([O-])c2ccccc21,"inconclusive [activator, full curve, poor fit]"
3,O=C(NCCN1CCCCC1)Nc1ccc(F)cc1,"inconclusive [activator, single point]"
4,COc1ccc(S(=O)(=O)N2N=C(C)Oc3ccccc3C2=O)cc1,active: 7.94 µM
5,Cc1nnc(NC(=O)CSc2nnc(C)n2-c2ccc(F)cc2)s1,"inconclusive [activator, partial curve, poor fit]"
6,CCOC(=O)c1c(NC(=O)CN2CCCc3ccccc32)sc(C(C)=O)c1C,inactive
7,COc1cc(S(=O)(=O)N2CCC(O)(c3cccc(C(F)(F)F)c3)CC2)ccc1-n1cnnn1,active: 7.31 µM
8,CCOC(=O)c1ccc(N/C=C/C(=O)C(C)(C)C)cc1,inactive
9,Cc1ccc(C)c(S(=O)(=O)N2CCN(C(=O)c3cc(-c4cccs4)nn3-c3ccccc3)CC2)c1,"inconclusive [activator, partial curve, poor fit]"
10,O=C(O)c1cccc(N2C(=O)CSC2=S)c1,"inconclusive [activator, single point]"
11,C=CCNC(=S)N/N=C/c1ccc(-c2ccc(Br)cc2)o1,inactive
12,O=C(Cc1cccc(C(F)(F)F)c1)Nc1ccccc1,inactive
13,CCOc1ccccc1NC(=O)NNS(=O)(=O)c1cc(OC)ccc1OC,"inconclusive [activator, single point]"
14,CC(=O)Nc1ccc(NC(=O)CC(C)n2ccnc2)cc1 (stereo not given),inactive
15,S=C(NCCc1ccccn1)Nc1ccc(Cl)c(Cl)c1,"inconclusive [activator, single point]"
16,CN(Cc1ccccc1)CC(O)COc1ccc(CNCc2nccn2C)cc1 (stereo not given),"inconclusive [activator, single point]"
17,Cc1nnn(C23C[C@@H]4C[C@@H](CC(C(=O)N5CCN(c6ccccc6)CC5)(C4)C2)C3)n1,inactive
18,C=CCOc1ccc(C2NC(=S)NC3=C2CCc2ccccc23)cc1 (stereo not given),"inconclusive [activator, partial curve]"
19,COc1cccc(N2CCN(C(=O)CN3C(=O)NC4(CCCC4)C3=O)CC2)c1,inactive
20,CC(C)n1nc(C(=O)Nc2cccc(S(=O)(=O)N3CCOCC3)c2)c2ccccc2c1=O,inactive
21,O=C(Nc1ncc(Cc2ccc(C(F)(F)F)cc2)s1)c1ccc(-c2cccc([N+](=O)[O-])c2)o1,"inconclusive [activator, full curve, poor fit]"
22,COc1ccc(C2=NOC(C(=O)NCc3ccco3)C2)cc1OC (stereo not given),active: 4.61 µM
23,Cc1ccnc(S(=O)(=O)Cc2ccc([N+](=O)[O-])cc2)n1,inactive
24,Nc1c(C(=O)N2CCCCC2)sc2nc3c(cc12)CCCC3,"inconclusive [activator, partial curve, poor fit]"

row,Compound,Potency
1,CCN(CC)C(=O)c1sc2nc(Cc3ccccc3)[nH]c(=O)c2c1C,"inconclusive [activator, partial curve, poor fit]"
2,Cc1cccc(OCc2nnc(SCC(=O)c3ccccc3)o2)c1,"inconclusive [activator, partial curve, poor fit]"
3,CN(C)C(=O)CCc1ccc2c3c([nH]c2c1)[C@]1(C)[C@@H](C(=O)N2CCOCC2)C[C@H](CC(=O)NCc2cccc(C(F)(F)F)c2)C(=O)N1CC3,inactive
4,Cc1ccc(S(=O)(=O)c2cc3ccccc3oc2=O)cc1,"inconclusive [activator, partial curve, poor fit]"
5,COCCCN=CC1=C(O)CC(C)(C)CC1=O,inactive
6,COc1cc(/C=C(\C#N)c2ccccn2)ccc1OCc1ccc(Cl)cc1,"inconclusive [activator, partial curve]"
7,O=C1/C(=C/c2ccncc2)SC(=S)N1C1CCS(=O)(=O)C1 (stereo not given),active: 20.6 µM
8,S=C(NC1CCCCC1)NC1CC2CCC(C1)N2Cc1ccccc1 (stereo not given),inactive
9,C=CC(=O)Nc1ccc(CN2C(=O)N(c3c(Cl)c(OC)cc(OC)c3Cl)Cc3cnc(NCCCCN(CC)CC)nc32)cc1,"inconclusive [activator, single point]"
10,N#Cc1ccc(CSc2nnc(NC(=O)c3ccc(=O)[nH]c3)s2)cc1,"inconclusive [activator, single point]"
11,[O-][n+]1c(/C=C/c2ccccc2)ccc2ccccc21,active: 20.6 µM
12,COCCNC(=O)C(c1ccncc1)N(Cc1ccccc1)C(=O)Cn1nnc2ccccc21 (stereo not given),"inconclusive [activator, single point]"
13,CSCCOC(=O)c1[nH]c2c(c1C)C(=O)CC(c1ccco1)C2 (stereo not given),"inconclusive [activator, partial curve, poor fit]"
14,CC(=O)c1cccc(NS(=O)(=O)c2ccc(N/C=C\C(=O)c3ccc(F)cc3)cc2)c1,"inconclusive [activator, single point]"
15,CCn1c(=O)c(C(=O)NCc2ccc(OC)c(OC)c2)c(O)c2ccccc21,"inconclusive [activator, single point]"
16,N=c1c2c(ncn1CCCO)Oc1c(ccc3ccccc13)C2c1ccccc1 (stereo not given),"inconclusive [activator, single point]"
17,CCOC(=O)C(NC(C)=O)C(=O)Nc1ccc(C)cc1C (stereo not given),inactive
18,Cc1ccc([C@@H]2[C@@H]3C(=O)N(c4ccccc4)C(=O)[C@@H]3[C@]3(C)C(=O)N(Cc4ccc(-c5ccccc5)cc4)CC(=O)N23)o1,"inconclusive [activator, single point]"
19,CN(CC(=O)Nc1ccccc1)CC(=O)Nc1ccccc1Cl,"inconclusive [activator, partial curve]"
20,COc1cccc(-c2nn(C)c3sc(C(=O)N4CCN(c5ccccn5)CC4)cc23)c1,"inconclusive [activator, single point]"
21,CCN(Cc1nc2cc(Cl)ccc2c(=O)[nH]1)C(=O)COc1ccccc1Cc1ccccc1,"inconclusive [activator, single point]"
22,OCc1ccccc1SSc1ccccc1CO,active: 18.4 µM
23,Cc1cc(C)n2nc(SCC(=O)N3CCCC(C)C3)nc2n1 (stereo not given),inactive
24,COc1ccccc1NS(=O)(=O)c1ccc(NN=C2CCCC2)c([N+](=O)[O-])c1,inactive

row,Compound,Potency
1,ONC(=Nc1ccc(Cl)cc1)c1ccccc1Cl,"inconclusive [activator, partial curve, poor fit]"
2,O=S(=O)(c1ccccc1)N(CC1CO1)c1cccc2ccccc12 (stereo not given),"inconclusive [activator, partial curve, poor fit]"
3,Cc1n[nH]c(C)c1S(=O)(=O)N1CCN(C2CCCCC2)CC1,inactive
4,CCC1(CC)Cc2ccccc2-c2nc(CN(C)C)[nH]c(=O)c21,"inconclusive [activator, single point]"
5,O=C(N/N=C\c1ccc(-c2cccc(Cl)c2)o1)C(=O)NC1CCCC1,"inconclusive [activator, partial curve, poor fit]"
6,O=C(NCCc1c[nH]c2ccccc12)C(=O)NCC(c1ccco1)N1CCN(c2ccccc2)CC1 (stereo not given),inactive
7,CN(C)CC/C=C1/c2cc(F)ccc2CSc2ccc(F)cc21,inactive
8,CCN(CC(=O)NC(=O)NC1CCCCC1)Cc1nc2ccccc2c(=O)[nH]1,inactive
9,CC(=O)c1ccc(NC(=O)COC(=O)c2ccccc2N=Nc2ccc(N(C)C)cc2)cc1,"inconclusive [activator, single point]"
10,Cc1nn(C)cc1/C=N/NC(=O)c1ccc2c(c1)OCO2,"inconclusive [activator, partial curve]"
11,Cc1c(NN=C(C#N)C#N)c(=O)n(-c2ccccc2)n1C,inactive
12,C=C1c2cc(C)ccc2NC(=O)N1c1ccc(C)cc1,"inconclusive [activator, single point]"
13,COc1ccccc1N1CCN(/N=C\C(Br)=C\c2ccccc2)CC1,"inconclusive [activator, single point]"
14,O=C(NCc1ccccn1)C(=O)NCC1OCCN1S(=O)(=O)c1ccc(F)cc1 (stereo not given),inactive
15,CCOC(=O)C1=NNC(C(=O)c2ccc(Cl)cc2)C1c1ccccc1 (stereo not given),"inconclusive [activator, partial curve]"
16,CCN(CC)P(=O)(Nc1ccc([N+](=O)[O-])cc1)c1c(C)nn(CCC#N)c1NC(=O)c1ccc(Cl)cc1Cl (stereo not given),inactive
17,COc1ccc(NC(=O)c2cc3c(=O)n4ccccc4nc3n2C)cc1OC,"inconclusive [activator, single point]"
18,Cc1cc[n+](C2=C([O-])c3ccccc3C(=O)/C2=N\S(=O)(=O)c2cccs2)cc1C,active: 20.6 µM
19,CN(C)c1ccc(NC2=C(Cl)C(=O)c3ccccc3C2=O)cc1,active: 4.11 µM
20,C(#Cc1c(-c2ccsc2)sc2ccccc12)c1ccsc1,"inconclusive [activator, single point]"
21,CCN1CCN(C(=O)Cn2cnc3sc(C)c(S(=O)(=O)N4CCN(c5ncccn5)CC4)c3c2=O)CC1,inactive
22,Cc1ccn2c(NC(C)(C)C)c(-c3cccs3)nc2c1,"inconclusive [activator, single point]"
